SMILES strings stand for the structures. Out of some 48,000 compounds screened, about 550 (1.1%) were called active. Not shown: some 4% with an inconclusive outcome. No stated cut-off is given here; in the data, active means potency below about 15 µM; inconclusive means mostly about 16 µM to 33 µM; inactive means weaker than that. This is one part of the list.

90 compounds from PubChem BioAssay AID360 (National Center for Advancing Translational Sciences (NCATS), 2006) can be followed below.
Potency means the concentration at half of the fitted maximal effect.

The assay addresses Lysosomal acid glucosylceramidase (Homo sapiens) (UniProt P04062). Put plainly: Glucocerebrosidase.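 Further: the screen sought inhibitors.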 Particulars: purified enzyme, resorufin glucoside fluorescence (screen aimed at inhibitors), 20 min. The gist of the method: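 Normal human glucocerebrosidase (0.2 nM final) was assayed with resorufin β-D-glucopyranoside (30 uM final) in 50mM citric acid/KH2PO4, 10mM sodium taurocholate, 0.01% tween-20, pH 5.9. Compounds were titrated; fluorescence (Ex 548, Em 600) read after 20 min at RT.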
Sequence of UniProt P04062 (P04062 whole entry, looked up): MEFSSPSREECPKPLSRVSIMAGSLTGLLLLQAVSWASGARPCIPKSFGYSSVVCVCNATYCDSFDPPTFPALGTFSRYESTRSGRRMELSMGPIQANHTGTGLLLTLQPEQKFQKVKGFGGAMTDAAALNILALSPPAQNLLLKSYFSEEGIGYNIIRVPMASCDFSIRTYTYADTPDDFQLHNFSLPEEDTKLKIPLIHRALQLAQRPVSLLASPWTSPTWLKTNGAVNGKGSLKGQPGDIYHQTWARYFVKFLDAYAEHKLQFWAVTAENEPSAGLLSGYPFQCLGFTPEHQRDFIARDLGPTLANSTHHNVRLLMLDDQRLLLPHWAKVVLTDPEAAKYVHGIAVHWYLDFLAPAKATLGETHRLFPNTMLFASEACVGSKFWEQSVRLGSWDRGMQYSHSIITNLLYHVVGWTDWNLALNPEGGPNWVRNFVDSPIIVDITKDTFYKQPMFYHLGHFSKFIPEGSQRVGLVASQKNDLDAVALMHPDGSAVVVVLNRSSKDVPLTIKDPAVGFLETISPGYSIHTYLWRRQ
As for `CCn1c(SCC(=O)Nc2ccc3c(c2)c2ccccc2n3CC)nnc1-c1cnccn1`, the Potency is inactive: > 76.9 µM.

Take `CCOc1ccc(NC(=O)C2CC=CCC2C(=O)O)cc1` (stereo not given): the Potency is inactive: > 76.9 µM.

With `CCn1c(SCC(=O)Nc2cc(OC)ccc2OC)nnc1C1CCCCC1`, the Potency was inactive: > 76.9 µM.

With `COC(=O)CN1C(=O)C2(OCCCO2)c2cc(Br)ccc21`, the Potency is inactive: > 76.9 µM.

Regarding `O=S(=O)(CCSc1nc2ccccc2o1)c1nc2ccccc2s1`, the Potency was inactive: > 76.9 µM.

Regarding `CC(C)CC(NC(=O)COc1ccccc1)C(=O)O` (stereo not given), the Potency is inactive: > 76.9 µM.

On to `O=C(CCCCn1c(=O)c2ccccc2n(CC(=O)Nc2ccccc2)c1=O)NCc1ccco1`, for which the Potency was inactive: > 76.9 µM.

For `CO/C([O-])=N/c1c[n+](-c2ccc(C)cc2)no1`, the Potency was inactive: > 76.9 µM.

Turning to `Cc1c(C(=O)NCc2ccccc2Cl)oc2c1C(=O)CCC2`, the Potency was inactive: > 76.9 µM.

Regarding `CC1CCCN(Cc2nc3c(c(=O)n(C)c(=O)n3C)n2CCCc2ccccc2)C1` (stereo not given), the Potency was inactive: > 76.9 µM.

With `O=C(Nc1ccccn1)c1cccnc1`, the Potency was inactive: > 76.9 µM.

Consider `CCn1c(SCC(=O)N2c3ccccc3Sc3ccccc32)nc2c1c(=O)n(C)c(=O)n2C`, for which the Potency is inactive: > 76.9 µM.

For `O=C(O)c1oc2ccccc2c1-n1cccc1`, the Potency is inactive: > 76.9 µM.

For the compound `CCCC(C)NS(=O)(=O)c1ccccc1` (stereo not given), the Potency was inactive: > 76.9 µM.

With `CC(NC(=O)c1cccc(C(F)(F)F)c1)C1CCCO1` (stereo not given), the Potency is inactive: > 76.9 µM.

Turning to `CN(C)c1ccnc(NCc2ccccc2)c1C#N`, the Potency was inactive: > 76.9 µM.

As to `Cc1ccc(NS(=O)(=O)c2cccc(C(=O)O)c2)c(C)c1`, the Potency is inactive: > 76.9 µM.

For `CC(NC(=O)CSc1n[nH]c(=O)n1C1CC1)C12CC3CC(CC(C3)C1)C2` (stereo not given), the Potency is inactive: > 76.9 µM.

As for `CC(=O)/C(CN1CCCCC1)=N\O`, the Potency was inactive: > 76.9 µM.

As for `Cc1ccc(S(=O)(=O)CC(=O)N(C)C)cc1`, the Potency is inactive: > 76.9 µM.

`COc1ccc(CCn2c(=N)c(C(=O)N3CCN(C)CC3)cc3c(=O)n4ccccc4nc32)cc1`: the Potency was inactive: > 76.9 µM.

With `COCC(C)n1c(C)cc(C(=O)COC(=O)c2nc3nc(C)cc(C)n3n2)c1C` (stereo not given), the Potency was inactive: > 76.9 µM.

As to `COc1cc(-c2nnc(SCc3ccccc3Cl)o2)cc(OC)c1OC`, the Potency is inactive: > 76.9 µM.

Regarding `CC(C)NC(=O)CN1CCC(O)(c2ccccc2)CC1`, the Potency was inactive: > 76.9 µM.

Consider `Cc1ccc(-c2nnc(SCC(=O)N3c4ccccc4NC(=O)C3(C)C)n2N)cc1`, for which the Potency was inactive: > 76.9 µM.

On to `Cc1ccc(C)c(-n2c(Cc3cc(=O)[nH]c(=O)[nH]3)nnc2SCC(=O)NCc2ccco2)c1`, for which the Potency is inactive: > 76.9 µM.

Take `Cc1noc(C)c1S(=O)(=O)N1CCCC(C(=O)NCCc2ccccc2)C1` (stereo not given): the Potency was inactive: > 76.9 µM.

Consider `N#Cc1c(SCC(N)=O)nsc1SCc1ccccc1Cl`, for which the Potency was inactive: > 76.9 µM.

As for `Cc1cnnc2c1-c1nonc1CC2`, the Potency is inactive: > 76.9 µM.

On to `c1ccc2[nH]c(SCc3cscn3)nc2c1`, for which the Potency is inactive: > 76.9 µM.

Regarding `CCOC(=O)c1ccoc1CSCc1ccc(C(=O)OC)o1`, the Potency was inactive: > 76.9 µM.

Take `COc1ccc(OC)c(CNC(=O)C2CCCN(C(=O)N(C)C)C2)c1` (stereo not given): the Potency is inactive: > 76.9 µM.

Regarding `COc1ccccc1-n1cnc2cc(NCc3ccco3)ccc21`, the Potency was inactive: > 76.9 µM.

Consider `O=C(CN1CCN(c2ncccn2)CC1)NCCC1=CCCCC1`, for which the Potency is inactive: > 76.9 µM.

As to `Cc1nn(-c2ccccc2)c(C)c1C(=O)OCC(=O)Nc1ccc2c(c1)OCO2`, the Potency was inactive: > 76.9 µM.

Consider `Cc1noc(C)c1S(=O)(=O)N1CCC(C(=O)N2CCN(C3CCCC3)CC2)CC1`, for which the Potency was inactive: > 76.9 µM.

Take `CCOC(=O)CNS(=O)(=O)c1c(C)noc1C`: the Potency was inactive: > 76.9 µM.

Take `O=C1CC(c2ccccc2)n2nc(NC(=O)c3cccs3)nc2N1` (stereo not given): the Potency is inactive: > 76.9 µM.

Consider `O=C(c1ccc(NS(=O)(=O)c2ccccc2)cc1)N1CCN(Cc2ccc3c(c2)OCO3)CC1`, for which the Potency was inactive: > 76.9 µM.

For `COc1ccc(C(=O)N2c3ccc(F)cc3CCC2C)cc1OC` (stereo not given), the Potency was inactive: > 76.9 µM.

As for `CC(CSc1nc2ccccc2s1)Cn1c(N2CCCC2)nc2c1c(=O)[nH]c(=O)n2C` (stereo not given), the Potency is inactive: > 76.9 µM.

Turning to `COC(=O)c1ccc(C)c(NC(=O)CN2C(=O)c3ccccc3S2(=O)=O)c1`, the Potency is inactive: > 76.9 µM.

`CCCn1c(NCc2cc(OC)ccc2OC)nc2ccccc21`: the Potency is inactive: > 76.9 µM.

As for `O=C(COc1ccc2oc3c(c2c1)CCCC3)Nc1ccccn1`, the Potency is inactive: > 76.9 µM.

Take `CCN(CC)S(=O)(=O)c1ccc2oc(C(=O)O)c(C)c2c1`: the Potency is inactive: > 76.9 µM.

In the case of `Cn1c(=O)oc2cc(S(=O)(=O)N3CCC4(CC3)OCCO4)ccc21`, the Potency was inactive: > 76.9 µM.

For the compound `CCCN(Cc1ccccc1)S(=O)(=O)c1ccc(N2C(=O)CCC2=O)cc1`, the Potency was inactive: > 76.9 µM.

Regarding `C=CCn1c(SCc2cc(=O)n3ccsc3n2)nnc1C1CCCCC1`, the Potency was inactive: > 76.9 µM.

Take `COc1ccc(OC)c(-n2cc3c(=O)n(C)c(=O)n(C)c3c2)c1`: the Potency was inactive: > 76.9 µM.

Take `COc1cc(C(=O)Nc2nc(OC)c(-c3ccccc3)c(OC)n2)cc(OC)c1OC`: the Potency was inactive: > 76.9 µM.

In the case of `COc1ccc(OC)c(S(=O)(=O)Nc2ccccc2SC)c1`, the Potency is inactive: > 76.9 µM.

Turning to `CCC(Sc1nc2cc3c(cc2c(=O)n1Cc1ccco1)OCO3)C(=O)Nc1ccccc1OC` (stereo not given), the Potency was inactive: > 76.9 µM.

For `O=S(=O)(Nc1cccc2ccccc12)N1CCCC1`, the Potency was inactive: > 76.9 µM.

Regarding `COc1ccccc1N1CCN(c2nc(N)c(C#N)c(CC#N)c2C#N)CC1`, the Potency was inactive: > 76.9 µM.

With `O=C(Nc1ccc2c(c1)CCC2)C1CCCN(c2ncccn2)C1` (stereo not given), the Potency is inactive: > 76.9 µM.

On to `Cc1oc(CC(C)C)c(CN2CCCC2)c1C(=O)O`, for which the Potency was inactive: > 76.9 µM.

Take `Cc1nn(S(=O)(=O)N(C)C)c(C)c1CN1C(=O)c2ccccc2C1=O`: the Potency was inactive: > 76.9 µM.

Consider `O=C1c2cccnc2C(O)N1Cc1ccc(F)cc1` (stereo not given), for which the Potency is inactive: > 76.9 µM.

As to `Cc1ccc(S(=O)(=O)N2CCC(C(=O)N3CCC[C@H]3C(=O)NCc3ccccc3)CC2)cc1`, the Potency is inactive: > 76.9 µM.

For the compound `COc1cc(OC)c(C(=O)Nc2ccc(N(C)C)cc2)cc1OC`, the Potency was inactive: > 76.9 µM.

As for `Cc1ccccc1-n1c(=O)c2ccccc2n2nnnc12`, the Potency was inactive: > 76.9 µM.

As to `O=C(CSc1nnc(-c2ccccc2Cl)n1Cc1ccco1)Nc1ccc2c(c1)OCCO2`, the Potency is inactive: > 76.9 µM.

On to `Cc1ccc(S(=O)(=O)NCC(=O)OC2CCOC2=O)cc1` (stereo not given), for which the Potency was inactive: > 76.9 µM.

`CCn1c(SCC(=O)n2nc(C)cc2C)nnc1-c1ccc2c(c1)OCO2`: the Potency was inactive: > 76.9 µM.

As for `CCOC(=O)Cn1c(CN(C)Cc2ccccc2)nc2c1c(=O)n(C)c(=O)n2C`, the Potency is inactive: > 76.9 µM.

With `COc1ccc(-n2c(SCC(=O)NCC3CCCO3)nc3n[nH]c(C)c3c2=N)cc1` (stereo not given), the Potency was inactive: > 76.9 µM.

Turning to `CC(C)c1nc(=S)c2ccccc2[nH]1`, the Potency was inactive: > 76.9 µM.

With `Nn1c(SCC(=O)Nc2ccc(F)c(F)c2)nnc1C1CCCCC1`, the Potency is inactive: > 76.9 µM.

In the case of `Cc1ccccc1Cn1c(CN2CCc3ccccc3C2)nc2c1c(=O)n(C)c(=O)n2C`, the Potency is inactive: > 76.9 µM.

In the case of `Cc1ccc(NC(=O)c2cc(N(C)C)ccc2[P+](=O)O)cc1`, the Potency was inactive: > 76.9 µM.

Turning to `Cn1c(=O)c2c(nc(Sc3n[nH]c(N)n3)n2Cc2ccccc2Cl)n(C)c1=O`, the Potency was inactive: > 76.9 µM.

In the case of `COc1ccc(C2(C(=O)Nc3c(C)n(C)n(-c4ccccc4)c3=O)CCCC2)cc1OC`, the Potency was inactive: > 76.9 µM.

For the compound `Cc1ccc2nc(-c3ccccc3Cl)cc(C(=O)Nc3cc(C)on3)c2c1`, the Potency is inactive: > 76.9 µM.

As to `COc1ccc(C(C#N)N2CCCCC2)cc1OC` (stereo not given), the Potency was inactive: > 76.9 µM.

As to `CCn1c(=N)c(C(=O)OC)cc2c(=O)n3ccccc3nc21`, the Potency was inactive: > 76.9 µM.

`COC(=O)c1ccc(Oc2nc(NC(C)C)nc(N(C)C)n2)cc1`: the Potency is inactive: > 76.9 µM.

Regarding `O=C(CCc1ccccc1)Nc1nc2n(n1)C(c1ccc(Cl)cc1)CC(=O)N2` (stereo not given), the Potency is inactive: > 76.9 µM.

In the case of `O=C(NC1CCCCC1)C(c1ccco1)N(Cc1ccco1)C(=O)c1ccco1` (stereo not given), the Potency was inactive: > 76.9 µM.

On to `O=C(Cn1nc(C(F)(F)F)c2c1CCCC2)NCCN1CCOCC1`, for which the Potency is inactive: > 76.9 µM.

As for `COc1cccc(C2CC(c3ccccc3)Nc3ncnn32)c1` (stereo not given), the Potency was inactive: > 76.9 µM.

Turning to `CCn1c(=N)c(C(=O)NC)cc2c(=O)n3cccc(C)c3nc21`, the Potency was inactive: > 76.9 µM.

Take `CC(C)(C)c1cc(NC(=O)COC(=O)C2CC2)n(-c2ccccc2)n1`: the Potency is inactive: > 76.9 µM.

As for `O=C(C1CC1)N1CCc2cc(Br)cc(S(=O)(=O)NCc3ccccn3)c21`, the Potency was inactive: > 76.9 µM.

For the compound `c1ccc(-n2c(-c3ccco3)nnc2N2CCOCC2)cc1`, the Potency was inactive: > 76.9 µM.

Take `Cn1c(SC/C=C/c2ccccc2)nnc1-c1cnccn1`: the Potency is inactive: > 76.9 µM.

Consider `O=C(CSc1nnnn1C1CCCCC1)Nc1cccc(NC(=O)c2ccco2)c1`, for which the Potency was inactive: > 76.9 µM.

In the case of `CCOC(=O)c1oc2ccccc2c1CSc1nnnn1-c1ccc(OC)cc1`, the Potency was inactive: > 76.9 µM.

As for `O=C1N(CCCN2C(=O)C3(OCCO3)c3ccccc32)c2ccccc2C12OCCO2`, the Potency is inactive: > 76.9 µM.

For `Cc1ccccc1Cn1nc(C)c(NC(=O)c2cc3n(n2)C(C(F)F)CC(C(F)F)N3)c1C` (stereo not given), the Potency is inactive: > 76.9 µM.

With `Nc1nncn1C(=O)CCc1ccccc1`, the Potency was inactive: > 76.9 µM.
